In PMC4336329 (PLoS ONE, 2015):
Hit rate of the full screen: of about 310,000 compounds, about 2,200 (0.71%) showed an effect of 50% or more. The effect is printed as a negative number. The list shows a part of the results.

Biological target: human ether-à-go-go-related gene (hERG) potassium channel (human, UniProt Q12809)
Assay: primary screen, population patch clamp on CHO cells stably expressing hERG

Sequence of human ether-à-go-go-related gene (hERG) potassium channel (Q12809 whole entry, looked up): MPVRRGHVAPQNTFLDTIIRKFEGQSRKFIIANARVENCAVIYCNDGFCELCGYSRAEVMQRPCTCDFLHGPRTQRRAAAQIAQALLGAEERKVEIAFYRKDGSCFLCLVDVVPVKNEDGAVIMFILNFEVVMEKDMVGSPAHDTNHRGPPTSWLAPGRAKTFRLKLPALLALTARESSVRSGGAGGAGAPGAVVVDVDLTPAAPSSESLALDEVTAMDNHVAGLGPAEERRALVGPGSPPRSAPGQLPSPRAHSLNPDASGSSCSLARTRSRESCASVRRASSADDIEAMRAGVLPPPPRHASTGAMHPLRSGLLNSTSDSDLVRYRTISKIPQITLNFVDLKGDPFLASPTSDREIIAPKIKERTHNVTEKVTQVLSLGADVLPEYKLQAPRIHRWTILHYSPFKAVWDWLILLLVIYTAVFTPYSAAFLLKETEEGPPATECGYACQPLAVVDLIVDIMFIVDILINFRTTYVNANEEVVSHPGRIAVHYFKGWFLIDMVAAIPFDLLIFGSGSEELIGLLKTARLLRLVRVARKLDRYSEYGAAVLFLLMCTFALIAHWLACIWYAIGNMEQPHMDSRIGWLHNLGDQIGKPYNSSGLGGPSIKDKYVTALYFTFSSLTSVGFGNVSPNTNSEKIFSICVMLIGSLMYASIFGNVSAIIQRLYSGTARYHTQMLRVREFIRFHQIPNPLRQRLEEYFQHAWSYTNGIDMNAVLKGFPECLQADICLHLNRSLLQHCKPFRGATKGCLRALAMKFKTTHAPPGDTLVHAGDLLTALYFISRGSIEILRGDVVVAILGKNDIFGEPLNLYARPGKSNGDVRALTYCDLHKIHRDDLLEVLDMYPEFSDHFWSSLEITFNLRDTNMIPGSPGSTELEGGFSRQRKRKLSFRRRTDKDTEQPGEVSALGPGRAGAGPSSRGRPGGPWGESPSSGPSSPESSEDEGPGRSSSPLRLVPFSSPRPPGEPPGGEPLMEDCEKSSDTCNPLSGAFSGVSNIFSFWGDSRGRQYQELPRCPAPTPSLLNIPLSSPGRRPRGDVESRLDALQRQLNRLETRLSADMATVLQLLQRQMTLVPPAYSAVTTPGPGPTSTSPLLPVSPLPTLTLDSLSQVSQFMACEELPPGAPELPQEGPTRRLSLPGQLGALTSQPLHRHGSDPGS

Compound | hERG current change (%, negative = inhibition) at 1uM
Cn1c(=O)c2c(ncn2CC(=O)Nc2ccccc2Sc2ccccc2)n(C)c1=O | -0.764%
Cc1ccc(NC(=O)C2CCCN2C(=O)NC2CCCCC2)c(C)c1 (centres unmarked) | 9.71%
Cc1ccccc1-n1nc(C)c2cc(C(=O)NCc3cccnc3)sc21 | -1.71%
Cc1ncc(CO)c2c1Oc1nc(-c3ccccc3F)nc(SCC(=O)N(C)c3ccccc3)c1C2 | 11.4%
Cc1cccc(N2CCN(C(=O)CCCn3c(=O)[nH]c4ccsc4c3=O)CC2C)c1 (centres unmarked) | 13.8%
COc1cc(/C=C/C(=O)OCC(=O)NC(=O)NC2CCCCC2C)ccc1OC(F)F (centres unmarked) | 3.09%
COc1ccc(/C=C/C(=O)OCC(=O)Nc2cccc(Oc3ccccc3)c2)c(OC)c1 | 4.6%
CC(=O)c1ccc(NC(=O)CN2CCCC2)cc1 | 13.9%
CCOC(=O)Cc1cnc(NC(=O)CSc2nc(C(C)C)cc(=O)[nH]2)s1 | 3.82%
O=C(CN1C(=O)C2CCCCC2C1=O)Nc1cccc([N+](=O)[O-])c1 (centres unmarked) | 5.59%
N#Cc1cc(C(=O)c2ccccc2OCC(=O)Nc2ccccc2Cl)cn(C2CCCCC2)c1=O | 2.7%
CC(C)CN1CCNC(=O)C1CC(=O)NCc1cnn(-c2cccc(F)c2)c1 (centres unmarked) | 8.03%
CC(=O)N1CCN(C(=S)NC(=O)c2c(-c3ccccc3Cl)noc2C)CC1 | 14.3%
Cn1ncc(Cl)c(Oc2ccc(Cl)cc2)c1=O | -2.07%
Cc1noc(C)c1NC(=O)NC(c1ccccc1)c1ccccc1 | 7.9%
CC(C)(C)c1ccc(CN2C(=O)CN=C(c3ccccc3)c3ccccc32)cc1 | -2.62%
O=C(Cn1c(N2CCN(c3ccccc3)CC2)nc2ccccc21)c1ccccc1 | -15.2%
Cc1cccc(NC(=O)CCN2C(=O)c3ccccc3C2=O)n1 | 12.6%
CCOc1c(C=C(C#N)C#N)c2ccccc2n1CC | 15.2%
COc1ccccc1NC(=O)CSc1nc2sc(C)c(C)c2c(=O)n1Cc1ccco1 | 12.2%
O=C(N/N=C/c1cccnc1)c1cccc(NC(=O)c2ccc(Cl)cc2)c1 | 18.9%
Cc1cc(C(=O)COc2ccc(C#N)cc2)c(C)n1-c1ccc2c(c1)OCO2 | 6.74%
Cc1cccc(C(=O)N/N=C/c2ccc3c(c2)OCO3)n1 | -3.51%

Compound | hERG current change (%, negative = inhibition) at 1uM
Cc1cc[n+](-c2[nH]c(=O)sc2/C=N/N=C(\[O-])c2ccncc2)cc1C | 10.4%
Cc1cc(C)cc(CC(CC(=O)Nc2ccc(Cl)cc2)C(=O)O)c1 (centres unmarked) | 11.5%
O=C(NCC1CCCO1)c1cc2c([nH]c3ccccc32)c(-c2cccc(Cl)c2)n1 (centres unmarked) | -3.28%
CCC(C)NC(=O)Cn1nc(C(F)(F)F)c2c1CCC2 (centres unmarked) | 7.51%
CCN(CC)S(=O)(=O)c1ccc(C(=O)O)cc1 | 18.8%
CCc1ccc2[nH]c(=O)c(CN(CCN3CCOCC3)C(=O)Nc3ccccc3F)cc2c1 | -7.22%
O=C(Nc1ccc(N2CCN(C(=O)c3cccs3)CC2)cc1)c1ccc(F)cc1 | 10.3%
CC(C)c1c(CN(C)C(C)Cc2ccccc2)n(C)n(-c2ccccc2)c1=O (centres unmarked) | 5.6%
CC(Oc1cccc(Cl)c1)C(=O)NCCCCc1ccccc1 (centres unmarked) | 11.3%
CN(C)/C=N/c1sc2c(c1C#N)CCC2 | 6.5%
COc1cc(C(=S)N2CCCC2)ccc1O | 14.1%
OCc1cccc[n+]1Cc1ccccc1.[Cl-] | 13%
CSc1nsc(SC)c1C(=O)Nc1ccc(C(C)(C)C)cc1 | 9.74%
Cc1ccc(S(=O)(=O)N(C)Cc2nc(-c3ccncc3)no2)cc1 | -2.19%
Cc1cccc(C(C)n2nnc3ccccc32)c1O (centres unmarked) | 11.7%
CC1CCN(S(=O)(=O)c2ccc3c(ccn3CC(=O)O)c2)CC1 | 9.88%
Cc1nn(C(C)C(=O)NC2CCCCC2)c(=O)c2nn(-c3ccccc3)c(C)c12 (centres unmarked) | 12.2%
CC(=O)Nc1ccc(NC(=O)[C@@H](NC(=O)c2cccc(C)c2)C(C)C)cc1 | 14.4%
O=C(NC1c2ccccc2-c2ccccc21)c1ccco1 | 8.22%
COc1ccc(CN(C)Cc2c(O)ccc3cc(Br)ccc23)cc1OC | 1.69%
O=c1[nH]c(O)c(C=NC2CCN(Cc3ccccc3)CC2)c(=O)[nH]1 | -11.1%
Nc1c(C(=O)NCCN2CCOCC2)c2nc3ccccc3nc2n1-c1cccc(F)c1 | -0.179%
CCNCc1nc2cc(OC)c(OC)cc2c(=O)[nH]1 | 0.317%

Compound | hERG current change (%, negative = inhibition) at 1uM
COc1cccc(NC(=O)N2CCCC2C(=O)NCc2ccccc2)c1 (centres unmarked) | 15.7%
O=C(O)c1n[nH]c2c1CCCCC2 | -5.65%
CCOC(=O)CNC(=O)CSc1nc(NCc2ccccc2)nc(N(C)C)n1 | 3.13%
Cl.c1ccc2c(c1)nc1n2CCN1CCN1CCCC1 | 18.3%
O=C(O)CSc1cc(C(=O)c2ccccc2O)cn2c(=O)c3c(-c4ccccc4)csc3nc12 | -6.74%
CCOC(=O)c1c(N)sc(C(=O)N(C)C)c1C | 11.9%
NC(=O)c1cccnc1Oc1cccc(Cl)c1 | 10.1%
Cc1cccc(-c2nc(CS(=O)CC(=O)NC3CCCC(C)C3C)c(C)o2)c1 (centres unmarked) | 14%
S=c1[nH]nc(COc2ccc(Cl)cc2Cl)n1-c1ccccc1 | 13.9%
C/C=C/n1ccnc1CC(O)(c1ccccc1)c1ccc(C)cc1 (centres unmarked) | -7.16%
Cc1ccc(CN(CC(=O)NC2CCCC2)C(=O)CSc2nnc(COc3ccccc3)o2)cc1 | 8.12%
CN(c1ccc(C(=O)NCc2ccc3c(c2)OCO3)cc1)S(=O)(=O)c1ccccc1 | 14.2%
CCCCN(CCCC)S(=O)(=O)c1c(C)[nH]c(=O)[nH]c1=O | 15.8%
O=C(c1cc2c(s1)CCCC2)N1CCN(S(=O)(=O)c2ccccc2)CC1 | 1.08%
Oc1c(C(c2ccc(Cl)cc2)N2CCCC2)cc(Cl)c2cccnc12 (centres unmarked) | 10.8%
CCN(C(=O)CSc1n[nH]c(-c2ccccc2)n1)c1c(N)n(Cc2ccccc2)c(=O)[nH]c1=O | 12.1%
COc1ccc2c(ccc[n+]2CC(=O)c2ccc(C)cc2)c1.[Br-] | 8.14%
O=C(N/C(=C/c1ccccc1)C(=O)N1CCCCC1)c1ccco1 | 19.1%
COc1ccc2nc(NC(=O)CSc3n[nH]c(N)n3)sc2c1 | 19.6%
COc1ccc(/C=C2\Sc3ccc(C(=O)NCCCN4CCCC4)cc3N(C)C2=O)cc1OC | -4.85%
COc1ccc(NC(=O)CN2CCOCC2)cc1S(=O)(=O)N1CCCCC1 | 5.95%
Cc1cc(C(=O)NC2CC(C)(C)Cc3c2cnn3-c2ccccc2)n(C)n1 (centres unmarked) | -3.01%
CC(C)(C)NC(=O)c1cccc(NC(=O)c2ccc(NC(=O)c3ccco3)cc2)c1 | -1.66%

Compound | hERG current change (%, negative = inhibition) at 1uM
COc1ccc(CCC(=O)NCC(c2ccco2)N2CCc3ccccc32)cc1 (centres unmarked) | -4.07%
COc1cccc(-c2nnn(CC(=O)O)n2)c1 | 11%
Cc1ccc(-c2nc(NCc3ccco3)n(C(=O)c3ccco3)n2)cc1 | 9.27%
COCCNC(=O)c1ccc(C2SCC(=O)N2CCc2ccccc2)cc1 (centres unmarked) | 10.6%
CC(OC(=O)c1ccco1)C(=O)NCc1cccs1 (centres unmarked) | 12.4%
CCN(CC)CCn1c(=N)n(CC(O)COc2ccccc2)c2ccccc21.Cl (centres unmarked) | -20.5%
CC(OC(=O)c1cnccn1)C(=O)c1ccccc1 (centres unmarked) | 5.25%
COc1cc(-c2nc(S(=O)(=O)c3ccccc3)c(N3CCOCC3)o2)cc(OC)c1OC | -8.07%
N#C/C(=C\c1cc(Cl)ccc1O)C(=O)NC1CCCCC1 | -5.41%
CCN(CC)S(=O)(=O)c1cccc2c(N(C)C)cccc12 | -16.1%
Cc1ccc(OC2=NS(=O)(=O)c3ccccc32)cc1 | 13.5%
Nc1c2c(nc3c1CCC3)CCCC2 | 7.93%
Cc1ccc(CCNC(=O)C2=CCN(S(=O)(=O)c3ccccc3)CC2)cc1 | -1.77%
Cc1cc(F)ccc1NS(=O)(=O)c1cccc2nsnc12 | 7.8%
CC(C)Sc1cc(N2CCOCC2)nc(-c2ccc(Cl)cc2)n1 | 16.7%
OCCN1CCN(c2nc(N3CCCCC3)nc(N3CCCCC3)n2)CC1 | 14.4%
CNC(=O)c1ccsc1NC(=O)CCS(=O)(=O)c1ccc(C)cc1 | 11.3%
COc1ccc(C(=O)c2c[nH]c3ccccc23)cc1 | 1.39%
COc1ccccc1N1CCN(C(=O)CN(c2ccccc2OC)S(=O)(=O)c2ccccc2)CC1 | -2.9%
Cc1ncc(CN2CCCC(C(=O)Nc3ccc(-c4cccc(F)c4)cc3)C2)cn1 (centres unmarked) | -8.52%
